Measurements from PubChem BioAssay AID686979 (National Center for Advancing Translational Sciences (NCATS), 2013).
The campaign covered roughly 420,000 compounds. About 50,000 (12%) were called active. Inconclusive results, whose numbers are uncertain, are shown with a selection of clear calls. The call rests on the fitted dose curve; in most records, active means well fitted inhibition curve with a large enough effect; inconclusive means small, poorly fitted or top-dose-only effect; inactive means flat fitted curve, though single readings scatter. No potency is given beside an inconclusive call; the fits are too rough. Some compounds were tested as several samples or in several runs, with calls that do not always agree.
On the % scale 0 is the no-effect control and ±100 the full control effect; potency means the concentration at half of the fitted maximal effect; tags describe the fitted curve by direction and shape.

Experiment: qHTS for Inhibitors of human tyrosyl-DNA phosphodiesterase 1 (TDP1): qHTS in cells in presence of CPT; further: nearly all actives have a fitted effect of over 55% in size
Settings: chicken DT40 Tdp1-/-;hTDP1 cells + 20 nM CPT, ATP luminescence, 48 h; activity change, negative = growth inhibition: at 46.2 µM (top of the series) unless noted
Method in brief: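 Chicken DT40 Tdp1-/- cells complemented with human TDP1, 400 cells/well, exposed to compounds plus 20 nM camptothecin for at least 48 h at 37 C; viability read as ATP content by CellTiter-Glo luminescence.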
With COC(=O)[C@@]12C[C@@H](CC(=O)NCCCN3CCCC3=O)C(=O)N(Cc3cccc4ccccc34)C1=CCC(C)(C)C2 the Potency was inconclusive [inhibitor, single point].
For COC(=O)c1ccc(COc2ncnc3c(Cl)cc(Cl)cc23)o1, the “activity change, negative = growth inhibition” value was inactive: -10.9%.
For C/C(=N\NC(=O)c1cccc(Cl)c1)c1cccc(NC(=O)C(C)C)c1, the “activity change, negative = growth inhibition” value was inactive: -15.1%.
For Cc1cccc(-c2nnc(SCc3cc(=O)c4cccc(Cl)c4[nH]3)n2C)c1, the Potency was active: 23.1 µM.
With COC(=O)c1c(NC(=O)COc2ncnc3ccccc23)sc(C)c1C the Potency was inconclusive [inhibitor, single point].
In the case of CCC(=O)Nc1cc(-c2cccc(C)c2)nn1-c1ccccc1, the Potency is reported as inconclusive [inhibitor, single point].
With CC1CCCN(S(=O)(=O)c2ccc(NC(=O)c3cccc(-n4cnnn4)c3)cc2)C1 (centres undefined) the Potency was inconclusive [inhibitor, single point].
For O=C(NC(=S)N1CCOCC1)c1cc2ccccc2o1, the Potency was active: 6.51 µM.
For Cc1cc(N/N=C/c2ccccc2[N+](=O)[O-])nc(-n2nc(C)cc2C)n1, the Potency was active: 1.16 µM.
With CCOC(=O)CNc1nc(Oc2ccc(=O)n(C)n2)nc(N(CC)CC)n1 the Potency was inconclusive [inhibitor, single point].
For COc1cc2c(cc1NC(=O)c1ccc3c(c1)OCO3)oc1ccccc12, the Potency was inconclusive [inhibitor, partial curve].
In the case of Cc1ccc(C(=O)NC(=S)NCC2CCCO2)cc1Br (centres undefined), the Potency is reported as inconclusive [inhibitor, single point].
In the case of O=C(O)CC(NCc1ccco1)C(=O)Nc1cccc(O)c1 (centres undefined), the “activity change, negative = growth inhibition” value is reported as inactive: 0.695%.
In the case of COc1cc(C2c3cc4c(cc3OC(C)(N3CCCC3)C2C)OCO4)cc(OC)c1OC (centres undefined), the Potency is reported as active: 1.16 µM.
In the case of CCCN(Cc1cccs1)C(=O)Nc1ccc(OCC)cc1, the “activity change, negative = growth inhibition” value is reported as inactive: -22%.
In the case of O=C(Nc1cnccn1)Nc1cccc(Cl)c1Cl, the “activity change, negative = growth inhibition” value is reported as inactive: -5.79%.
For COc1ccc(C(=O)NCCSc2ccccc2C)cc1, the “activity change, negative = growth inhibition” value was inactive: -12.7%.
In the case of CN(C)c1ncc2ncc(=O)n(Cc3cccs3)c2n1, the Potency is reported as inconclusive [inhibitor, single point].
With CCCCOc1ccc(-c2nnn(CC(=O)c3c[nH]c4ccccc34)n2)cc1 the Potency was inconclusive [inhibitor, full curve].
In the case of COc1ccccc1OCC(=O)NNC(=O)c1c(-c2ccccc2Cl)noc1C, the Potency is reported as inconclusive [inhibitor, full curve, poor fit].
With CCc1ccccc1OCC(=O)Nc1cccc(S(=O)(=O)N2CCCC2)c1 the Potency was inconclusive [inhibitor, single point].
With O=c1[nH]c(=O)n(Cc2ccccc2)c2nc(-c3ccc(C(F)(F)F)cc3)n(CCO)c12 the Potency was inconclusive [inhibitor, partial curve].
With COc1cccc(/C=N/NC(=O)c2c(C)nc3ccc(Cl)cn23)c1O the Potency was active: 0.92 µM.
With COc1ccc(NC(=O)N(CCC(C)C)C(C)c2cccs2)c(OC)c1 (centres undefined) the Potency was inconclusive [inhibitor, single point].
For O=[N+]([O-])c1ccc(CNc2ccc(Cl)cc2)s1, the “activity change, negative = growth inhibition” value was inactive: -21.4%.
With CCc1nc2ccc(C(=O)Nc3cc(-c4ccccc4)ccc3OC)cn2c1N(CCN(C)C)CC1CC1 the Potency was active: 20.6 µM.
For COc1cc(C(=O)NCC(=O)N/N=C(\C)Cc2ccccc2)cc(OC)c1OC, the “activity change, negative = growth inhibition” value was inactive: 14.8%.
In the case of Fc1ccc(-c2nc3c4ccccc4ccn3c2CC2CCCCC2)cc1, the Potency is reported as active: 14.6 µM.
In the case of N/C(=N\OC(=O)c1ccccc1[N+](=O)[O-])c1cccnc1, the “activity change, negative = growth inhibition” value is reported as inactive: -1.68%.
For CC(C)CC(=O)Nc1ccc(C(=O)Nc2cccc(O)c2)cc1, the Potency was inconclusive [inhibitor, single point].
In the case of COc1cc(-c2noc(C)c2C#Cc2ccsc2)cc(OC)c1OC, the Potency is reported as active: 0.708 µM.
With Cc1ccc(NC(=O)CS(=O)Cc2nc(-c3ccc(C)cc3)oc2C)cc1 (centres undefined) the Potency was inconclusive [inhibitor, single point].
In the case of C[C@H]1C=C(C(=O)NCc2nc3ccccc3[nH]2)O[C@@H](OCCCCO)C1, the “activity change, negative = growth inhibition” value is reported as inactive: -11.1%.
With CC1CCCC(C)N1C(=O)c1ccc(S(=O)(=O)NCc2ccco2)cc1 (centres undefined) the Potency was inconclusive [inhibitor, partial curve].
With COc1ccc(OC)c(NC(=O)c2cc(-c3ccc(Cl)s3)nc3ccccc23)c1 the “activity change, negative = growth inhibition” value was inactive: -27.5%.
With OC1CCN(C(=S)Nc2ccc(Nc3ccccc3)cc2)CC1 the Potency was inconclusive [inhibitor, single point].
With Nc1nc(SCC(=O)Nc2ccc3c(c2)OCO3)n[nH]1 the “activity change, negative = growth inhibition” value was inactive: -3.63%.
In the case of COC(=O)c1ccc(C)c(N(CCO)CCO)c1, the “activity change, negative = growth inhibition” value is reported as inactive: 2.14%.
With CNc1cncc(-c2cccc(C(C)=O)c2)n1 the Potency was inconclusive [inhibitor, single point].
In the case of CC(/C=C/c1ccc(O)cc1)=N/O, the Potency is reported as active: 14.6 µM.
In the case of COc1ccc(-n2nc(C(=O)NCC(=O)N3CC(C)CC(C)C3)c3ccccc3c2=O)cc1OC (centres undefined), the Potency is reported as inconclusive [inhibitor, single point].
With COc1ccc(C(C)=O)cc1CSC(=N)N the Potency was inconclusive [inhibitor, single point].
For O=C(NC1CCCc2ccccc21)c1n[nH]c(=O)c2ccccc12 (centres undefined), the Potency was inconclusive [inhibitor, full curve].
For COc1ccc(Oc2ccccc2C=O)cc1, the Potency was active: 11.6 µM.
For CCN1C(=O)CSC1=NC1C2CC3CC(C2)CC1C3 (centres undefined), the Potency was inconclusive [inhibitor, single point].
In the case of Cc1nonc1C1CCCN1Cc1nc(-c2ccc(F)cc2F)oc1C (centres undefined), the Potency is reported as inconclusive [inhibitor, single point].
With C[C@H](NC(=O)c1nc[nH]c1C(=O)N[C@@H](C)C(=O)OC(C)(C)C)C(=O)OC(C)(C)C the “activity change, negative = growth inhibition” value was inactive: -25.7%.
For Cc1ccc(-c2ccc(=O)n(CC(=O)NCCN(CC(C)C)CC(C)C)n2)cc1, the Potency was inconclusive [inhibitor, single point].
For O=C1C(Cc2cccc([N+](=O)[O-])c2)S/C(=N/N=C/c2ccco2)N1c1ccccc1 (centres undefined), the Potency was inconclusive [inhibitor, single point].
